Test results taken from publication PMC11169713 (Frontiers in Immunology, 2024).

Molecular target: biotinylated H7 A/Shanghai/02/2013 hemagglutinin (Influenza A virus A/Shanghai/02/2013 …, UniProt R4NN21, strain, biotin (site not stated))
Assay: mesoscale discovery (MSD) platform binding assay
Details: both partners purified

B1: L5A7.5 antibody (IgG) (antibody, V domains shown)
VH: QVQLQQSGPGLVKPSQTLSLTCGISGDSVSSDAAAWDWIRQSPSRGLEWLGRTFYRSRWHHDYSESVKNRITINADTSKNQFSLQLTSVTPEDTATYYCARAGVRVFGIIVNSLDYWGQGTLVTVSS
VL: AIQLTQSPSSLSASVGDRVTITCRASQATSSYLAWYQQKPGKAPKLLIYAASTLQSGVPSRFSGSGSGTDFTLTITSLQPEDFATYYCQLSKTFGPGTKVEIK
B1: binds.
